# Tests used:
# [1] = tested on: cabbage Alternaria sooty spot fungi (Alternaia brassicicola); test: Test Example C: cabbage Alternaria sooty spot, spray treatment of cabbage plants; format: in vivo; conditions: cabbage Alternaria sooty spot, spray treatment
# Excerpt: [Test Example C] Cabbage Alternaria Sooty Spot
# Test plants (cabbage variety: Shikidori) were cultivated until the cotyledons extended after the sowing of seeds.
# <Control Value> Control value=100{1−(n/3)}
# [2] = tested on: wheat brown rust fungi (Puccinia recondita); test: Test Example E: wheat brown rust, spray treatment of wheat plants; format: in vivo; conditions: wheat brown rust, spray treatment
# [3] = tested on: gray mold fungi (Botrytis cinerea); test: Test Example B: tomato gray mold, spray treatment of tomato plants; conditions: tomato gray mold, spray treatment
# [4] = tested on: grape downy mildew fungus (Plasmopara viticola); test: Test Example G: grape downy mildew, spray treatment of grape plants; conditions: grape downy mildew, 250 ppm spray, 7 to 10 days after inoculation
# [5] = tested on: barley powdery mildew fungi (Blumeria graminis f. sp. hordei); test: Test Example D: barley powdery mildew, spray treatment of barley plants; conditions: barley powdery mildew, spray treatment
Compound,Test C control value [1],Test E control value [2],Test B control value [3],Test G control value [4],Test D control value [5]
Cc1ccc(C)c(-n2cc(Br)c(=O)c(Cl)c2-c2ccccc2)c1 [Compound 459],L (L shows the control value of 50% or less),L (L shows the control value of 50% or less),H (H shows the control value of more than 50%),L (L shows the control value of 50% or less),L (L shows the control value of 50% or less)
Cc1c(Cl)cccc1-n1cc(C)c(=O)c(C)c1-c1c(F)cc(F)cc1F [Compound 461],H (H shows the control value of more than 50%),H (H shows the control value of more than 50%),H (H shows the control value of more than 50%),L (L shows the control value of 50% or less),H (H shows the control value of more than 50%)
COc1cc(F)c(-c2c(C)c(=O)c(C)cn2-c2cc(F)ccc2C)c(F)c1 [Compound 462],H (H shows the control value of more than 50%),H (H shows the control value of more than 50%),H (H shows the control value of more than 50%),L (L shows the control value of 50% or less),H (H shows the control value of more than 50%)
Cc1ccc(Cl)cc1-n1cc(C)c(=O)c(C)c1-c1c(F)cc(F)cc1F [Compound 463],H (H shows the control value of more than 50%),H (H shows the control value of more than 50%),H (H shows the control value of more than 50%),L (L shows the control value of 50% or less),H (H shows the control value of more than 50%)
Cc1cccc(-n2cc(C)c(=O)c(C)c2-c2c(F)cc(F)cc2F)c1C [Compound 465],H (H shows the control value of more than 50%),H (H shows the control value of more than 50%),H (H shows the control value of more than 50%),H (H shows the control value of more than 50%),H (H shows the control value of more than 50%)
Cc1cn(-c2ccccc2)c(-c2ccc(F)cc2F)c(C)c1=O [Compound 466],H (H shows the control value of more than 50%),H (H shows the control value of more than 50%),H (H shows the control value of more than 50%),L (L shows the control value of 50% or less),H (H shows the control value of more than 50%)
O=c1c(Br)cn(-c2ccccc2)c(-c2ccccc2F)c1Cl [Compound 467],H (H shows the control value of more than 50%),L (L shows the control value of 50% or less),H (H shows the control value of more than 50%),L (L shows the control value of 50% or less),L (L shows the control value of 50% or less)
O=c1c(Br)cn(-c2ccccc2)c(-c2ccccc2F)c1Br [Compound 468],H (H shows the control value of more than 50%),L (L shows the control value of 50% or less),H (H shows the control value of more than 50%),L (L shows the control value of 50% or less),L (L shows the control value of 50% or less)
O=c1c(Br)cn(-c2ccccc2)c(-c2ccc(F)cc2F)c1Br [Compound 470],H (H shows the control value of more than 50%),H (H shows the control value of more than 50%),H (H shows the control value of more than 50%),L (L shows the control value of 50% or less),L (L shows the control value of 50% or less)

# Source: patent US11000038B2, “Pyridone compounds and agricultural and horticultural fungicides containing the same as active ingredients” (priority 2017, dated 2021)
